B1: PhoQ; a variant is named by its letters at X, in order, P23837 (parent)
chain: MKKLLRLFFPLSLRVRFLLATAAVVLVLSLAYGMVALIGYSVSFDKTTFRLLRGESNLFYTLAKWENNKLHVELPENIDKQSPTMTLIYDENGQLLWAQRDVPWLMKMIQPDWLKSNGFHEIEADVNDTSLLLSGDHSIQQQLQEVREDDDDAEMTHSVAVNVYPATSRMPKLTIVVVDTIPVELKSSYMVWSWFIYVLSANLLLVIPLLWVAAWWSLRPIEALAKEVRELEEHNRELLNPATTRELTSLVRNLNRLLKSERERYDKYRTTLTDLTHSLKTPLXXLQXXLRSLRSEKMSVSDAEPVMLEQISRISQQIGYYLHRASMRGGTLLSRELHPVAPLLDNLTSALNKVYQRKGVNISLDISPEISFVGEQNDFVEVMGNVLDNACKYCLEFVEISARQTDEHLYIVVEDDGPGIPLSKREVIFDRGQRVDTLRPGQGVGLAVAREITEQYEGKIVAGESMLGGARMEVIFGRQHSAPKDE

This is one part of the list.

The variants in this assay derive from B1. Nature of the assay: enrichment ratio after two sorts for PhoP signalling (ratio (wild type AVST 3.29)); higher = more functional. As to conditions: with PhoP (E. coli).
Consider IRNG, for which the enrichment ratio is not above 0.25.
PFSY: the enrichment ratio was not above 0.25.
For the variant QVQH, the enrichment ratio was not above 0.25.
As for KLWC, the enrichment ratio was not above 0.25.
Next, DFCR: not above 0.25; FGQQ: not above 0.25.
Turning to QHNG, the enrichment ratio is 6.46.
With LGHW, the enrichment ratio was not above 0.25.
With HCPD, the enrichment ratio is not above 0.25.
For PCAK, the enrichment ratio was not above 0.25.
Turning to PYNI, the enrichment ratio is not above 0.25.
VLCF: the enrichment ratio was not above 0.25.
For the variant VQYM, the enrichment ratio is not above 0.25.
For the variant ASNG, the enrichment ratio was not above 0.25.
On to GHIK, for which the enrichment ratio was not above 0.25.
The result for MDFY reads not above 0.25; that for SNPL, not above 0.25.
The result for NIGH reads not above 0.25; that for PANF, not above 0.25; that for IISV, not above 0.25.
On to YENF, for which the enrichment ratio is not above 0.25.
NYMF: the enrichment ratio was not above 0.25.
For RWYP, the enrichment ratio is not above 0.25.
Turning to WVFY, the enrichment ratio is not above 0.25.
The result for SKRI reads not above 0.25; that for PDSQ, not above 0.25; that for MAPN, not above 0.25.
Next, RLKP: not above 0.25; VCDL: not above 0.25.
As for RTTF, the enrichment ratio is not above 0.25.
VQWW: the enrichment ratio was not above 0.25.
Next, FDKL: not above 0.25.
Regarding FNHR, the enrichment ratio was not above 0.25.
Next, PMKY: not above 0.25; IFIQ: not above 0.25.
Turning to QQSL, the enrichment ratio is 4.22.
Take FWWD: the enrichment ratio was not above 0.25.
For NIPS, the enrichment ratio is not above 0.25.
As for TSMT, the enrichment ratio was 11.
As to VEGN, the enrichment ratio is not above 0.25.
Next, NYAT: not above 0.25; NRCR: not above 0.25.
For the variant EENM, the enrichment ratio was not above 0.25.
DKKK: the enrichment ratio is not above 0.25.
For the variant MGDL, the enrichment ratio was not above 0.25.
TFNV: the enrichment ratio was not above 0.25.
As to DMVW, the enrichment ratio is not above 0.25.
Consider MQAR, for which the enrichment ratio is not above 0.25.
Consider HLFW, for which the enrichment ratio is not above 0.25.
The result for VDRD reads not above 0.25; that for HLFE, not above 0.25; that for MEQV, not above 0.25.
Take VTHG: the enrichment ratio is not above 0.25.
Next, PMCL: not above 0.25.
As for YQGN, the enrichment ratio is not above 0.25.
For the variant RVVC, the enrichment ratio is not above 0.25.
In the case of IHEK, the enrichment ratio was not above 0.25.
The result for KYVR reads not above 0.25; that for YDVP, not above 0.25.
Turning to SAGG, the enrichment ratio came out at 6.77.
On to DYTT, for which the enrichment ratio was not above 0.25.
As to ETFR, the enrichment ratio was not above 0.25.
Regarding NFCM, the enrichment ratio is not above 0.25.
In the case of IPAN, the enrichment ratio is not above 0.25.
As for YSWV, the enrichment ratio was not above 0.25.
Next, TILD: not above 0.25; HFDW: not above 0.25.
Regarding FGHT, the enrichment ratio was not above 0.25.
In the case of NTHY, the enrichment ratio is not above 0.25.
Next, QGDK: not above 0.25.
For RYKE, the enrichment ratio was not above 0.25.
For PIAA, the enrichment ratio is not above 0.25.
The result for SPRD reads not above 0.25; that for WTHA, not above 0.25; that for ANFK, not above 0.25.
Take RVWQ: the enrichment ratio is not above 0.25.
ISYY: the enrichment ratio is not above 0.25.
Consider RMQR, for which the enrichment ratio is not above 0.25.
With FDVR, the enrichment ratio is 0.644.
FQSN: the enrichment ratio was not above 0.25.
The result for ACSA reads 11; that for FQNC, not above 0.25.
For the variant HCRP, the enrichment ratio is not above 0.25.
In the case of RLML, the enrichment ratio is not above 0.25.
The result for FTDQ reads not above 0.25.
WPLE: the enrichment ratio is not above 0.25.
With MPMD, the enrichment ratio was not above 0.25.
YIAY: the enrichment ratio was not above 0.25.
The result for WSHA reads not above 0.25; that for HLPN, not above 0.25.
With GHAH, the enrichment ratio was not above 0.25.
The result for PPFT reads not above 0.25; that for ARVK, not above 0.25.
Next, HITW: not above 0.25.
As for YPCE, the enrichment ratio was not above 0.25.
As to RNEA, the enrichment ratio is not above 0.25.
For the variant AALA, the enrichment ratio was found to be 7.36.
Take QGGP: the enrichment ratio is not above 0.25.
Next, YKTG: not above 0.25.
Consider SAIQ, for which the enrichment ratio is 0.849.
Take AILY: the enrichment ratio was 1.94.
Next, KDAI: not above 0.25; LTWR: not above 0.25; PDMR: not above 0.25.
Take FVIG: the enrichment ratio is not above 0.25.
Next, IVDW: not above 0.25.
For the variant VMCG, the enrichment ratio is not above 0.25.
In the case of ITVN, the enrichment ratio is not above 0.25.
On to GKAH, for which the enrichment ratio was not above 0.25.
On to ATCR, for which the enrichment ratio was determined as 6.44.
With KCRM, the enrichment ratio is not above 0.25.
For QKYC, the enrichment ratio is not above 0.25.
HENG: the enrichment ratio was not above 0.25.
As for GELN, the enrichment ratio worked out at 7.62.
For the variant VYMT, the enrichment ratio is not above 0.25.
As to PNHK, the enrichment ratio was not above 0.25.
The result for GTLC reads 10; that for MIRC, not above 0.25; that for ESWC, not above 0.25.
Take QLRD: the enrichment ratio was not above 0.25.
Take PKHY: the enrichment ratio was not above 0.25.
Take FSLH: the enrichment ratio came to 3.46.
The result for RQAV reads not above 0.25; that for AFFC, not above 0.25; that for WFRM, not above 0.25.
Consider KDMS, for which the enrichment ratio is not above 0.25.
KNPV: the enrichment ratio was not above 0.25.
For CRAL, the enrichment ratio was not above 0.25.
The result for KPWS reads not above 0.25.
Next, QHSF: not above 0.25; TCEK: not above 0.25.
Turning to LSGE, the enrichment ratio is not above 0.25.
For the variant SRMS, the enrichment ratio is not above 0.25.
Next, EGGP: not above 0.25.
NYYF: the enrichment ratio is not above 0.25.
Consider MCRL, for which the enrichment ratio was not above 0.25.
As for SQIT, the enrichment ratio came to 0.672.
As for LMQC, the enrichment ratio is not above 0.25.
With GQNT, the enrichment ratio is not above 0.25.
With HSVM, the enrichment ratio turned out to be 9.67.
Consider TLFT, for which the enrichment ratio was not above 0.25.
For ALWG, the enrichment ratio is not above 0.25.
As for PNFG, the enrichment ratio was not above 0.25.
Next, KVAP: not above 0.25; AEHR: not above 0.25.
As to LQFY, the enrichment ratio was determined as 1.39.
Turning to FTNP, the enrichment ratio is not above 0.25.
As for DCSN, the enrichment ratio was not above 0.25.
As to KDQT, the enrichment ratio is not above 0.25.
KSKG: the enrichment ratio was not above 0.25.
The result for GLID reads not above 0.25.
Regarding WSSR, the enrichment ratio was 0.679.
Consider QVAT, for which the enrichment ratio is not above 0.25.
Take DWAL: the enrichment ratio was not above 0.25.
For IPTH, the enrichment ratio is not above 0.25.
For the variant FRYP, the enrichment ratio was not above 0.25.
With SLLG, the enrichment ratio turned out to be 6.8.
In the case of AQFL, the enrichment ratio is not above 0.25.
Turning to THQD, the enrichment ratio is not above 0.25.
With FHMN, the enrichment ratio was not above 0.25.
Regarding KDPV, the enrichment ratio is not above 0.25.
The result for GRVM reads not above 0.25.
As for FDHD, the enrichment ratio was not above 0.25.
FPWW: the enrichment ratio amounted to 1.1.
Consider GFRT, for which the enrichment ratio is not above 0.25.
The result for LLQK reads not above 0.25; that for FHDC, not above 0.25.
On to HRHI, for which the enrichment ratio was not above 0.25.
Turning to GFMY, the enrichment ratio was not above 0.25.
Consider KHHF, for which the enrichment ratio was not above 0.25.
For RGIA, the enrichment ratio is not above 0.25.
In the case of HESS, the enrichment ratio was not above 0.25.
Next, NGNG: not above 0.25; GQAG: not above 0.25.
For IMLK, the enrichment ratio is not above 0.25.
Consider YLFN, for which the enrichment ratio is not above 0.25.
With TEDQ, the enrichment ratio is not above 0.25.
Regarding NRLH, the enrichment ratio is not above 0.25.
With AQVL, the enrichment ratio amounted to 6.96.
The result for MMVC reads not above 0.25.
Consider TPKM, for which the enrichment ratio is not above 0.25.
Regarding TQHP, the enrichment ratio is not above 0.25.
Take AVIA: the enrichment ratio was not above 0.25.
Take DVEE: the enrichment ratio is not above 0.25.
As for GQYP, the enrichment ratio was not above 0.25.
The result for LKYA reads not above 0.25.
In the case of TSLM, the enrichment ratio was 16.7.
Regarding QGPS, the enrichment ratio was not above 0.25.
In the case of YFRA, the enrichment ratio is not above 0.25.
Turning to MMHH, the enrichment ratio was not above 0.25.
The result for YAMA reads not above 0.25; that for PRRG, not above 0.25; that for GLWQ, not above 0.25.
In the case of TETA, the enrichment ratio was not above 0.25.
Take EYRN: the enrichment ratio is not above 0.25.

The record behind these values is a collection of fitness landscapes (doi:10.1126/science.1257360).
